From the supplement of paper PMC3334620
The full ranking holds about 33,000 sequences; the median of “E-score (-0.5 to 0.5)” is about -0.056, and the highest 2% start at about 0.38. The list shows a part of the results.

Target: Stb4 (UniProt P50104)
Assay: PBM E-score (8-mer binding enrichment) (E-score (-0.5 to 0.5)); higher = stronger / more preferred TF binding; most listed sequences are background and not binding sites
Conditions: protein concentration: 200 nM; construct: GST-DNA-binding domain
Method in brief: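 Yeast transcription factors carrying a GST tag, as full-length proteins or DNA-binding domains, were produced by PURExpress in vitro transcription/translation. About 100-200 nM protein was applied to universal all-10-mer Agilent arrays, double-stranded by primer extension on fresh or once-stripped slides. Bound protein was detected with fluorescent anti-GST, and scans were normalised with masliner. The Universal PBM Analysis Suite gave each ungapped eight-base word, pooled with its reverse complement, an E-score, a modified Wilcoxon-Mann-Whitney statistic.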

| Sequence | PBM E-score |
| --- | --- |
| GAATAGTA | -0.0416 |
| AACACGCC | -0.00358 |
| GGATAAGA | 0.175 |
| AGTAAATC | -0.24 |
| GAAATGTC | 0.118 |
| AAGATTGA | -0.261 |
| GAATAGCC | 0.126 |
| GAAGGACC | 0.0383 |
| AGTGGTTG | -0.172 |
| ACGGCGTG | -0.0208 |
| CGAGTTTC | 0.113 |
| GAGGCTAC | -0.206 |
| AATAGGCA | -0.0588 |
| ATGAACAA | -0.0735 |
| AACAGCGA | -0.213 |
| AGCTGTAT | -0.191 |
| GGACGCGA | -0.163 |
| TAGCAACA | 0.0435 |
| CCGCTAGC | 0.061 |
| ACCTTACC | 0.0694 |
| ACCAATAG | -0.265 |
| CCTCTGCC | -0.186 |
| AATGCCCG | 0.126 |
| AAGCACCA | -0.28 |

| Sequence | PBM E-score |
| --- | --- |
| AGTGCTTG | -0.179 |
| CGAATGTC | 0.038 |
| ATTTGCCG | 0.356 |
| AACATACG | 0.124 |
| CTCTCCTA | -0.148 |
| TCCATGCA | 0.033 |
| AGCACGCT | -0.249 |
| ACTCTACA | -0.0328 |
| CACTCCGA | 0.295 |
| ACGAAGGA | -0.161 |
| ACTGTAGG | -0.127 |
| CTTACGTC | -0.153 |
| TCATTAAA | 0.00667 |
| AAAGGTCG | -0.037 |
| TCTTAAAA | -0.236 |
| GTTATGGA | -0.199 |
| CTTAGTAA | 0.045 |
| AGGCGACC | -0.0143 |
| GATCATCA | -0.0412 |
| TCACCTGA | -0.168 |
| ATCGATCA | -0.0367 |
| ACAGAAGT | -0.197 |
| CCGTAAAC | 0.116 |
| CCATGGAC | -0.152 |

| Sequence | PBM E-score |
| --- | --- |
| GCCAGCCC | -0.121 |
| CCGCAGGA | 0.0463 |
| CGAGCCTC | 0.201 |
| CGCCGATA | 0.27 |
| ACGCCTCT | -0.289 |
| ACGAAGGC | -0.0627 |
| ACCGAAGC | 0.287 |
| ATCGCGCG | 0.0342 |
| GGCCTGAC | 0.0392 |
| ACATTAGG | -0.193 |
| GACAAGCA | -0.0967 |
| AAGCTCGT | -0.187 |
| ATTCTTTC | -0.0171 |
| GAGCGAGA | 0.111 |
| CACTGGAA | -0.237 |
| ACTGGAAA | -0.127 |
| ATGTGGGA | -0.132 |
| GAACATTC | 0.118 |
| AATTTGCG | -0.131 |
| GCTGTACA | -0.0175 |
| CGAGGGTC | 0.271 |
| GAGGCGAA | 0.115 |
| CTTGACAA | -0.0427 |
| ACTAATTA | -0.131 |

| Sequence | PBM E-score |
| --- | --- |
| GCCGATCA | 0.266 |
| GATTCGAA | -0.0188 |
| ACCGGGCT | 0.193 |
| AGATACAC | -0.107 |
| CATCACAC | 0.0112 |
| AGATTGCT | -0.249 |
| CACCATCC | 0.00805 |
| GAACAATC | 0.0612 |
| AAATCAGC | -0.0498 |
| GTTGAATA | 0.0113 |
| AGTGATGC | -0.0769 |
| CATGCAGG | -0.262 |
| CTTCGCCC | -0.0948 |
| CCAACCGG | 0.122 |
| AGTTCCTC | -0.0195 |
| TGGACCAA | -0.0635 |
| ATAGACAC | -0.115 |
| CCCATAAG | -0.0628 |
| AATGGCTA | -0.0824 |
| AGCCTCCT | -0.207 |
| ACCCTAGG | -0.188 |
| GGGTATGA | 0.15 |
